One assay addresses C. elegans iPGM (Caenorhabditis elegans, UniProt G5EFZ1). The assay is described as follows: PGM enzyme assay (enolase–pyruvate kinase coupled, Kinase-Glo Plus end point) and IC50 determination. The class given is biochemical. As to conditions: IC50 (M), Supplemental Figure 5, 1st row pair; enzyme not given, inferred from match with Table 4a.
In the next assay the target is B. malayi iPGM (Brugia malayi, UniProt Q4VWF8). Put plainly: biochemical. The conditions noted are these: IC50 (M), Supplemental Figure 5, 2nd row pair; enzyme not given, inferred from match with Table 4a.
The target of the next assay is O. volvulus iPGM (Onchocerca volvulus, UniProt I6LDA6). The assay is described as follows: biochemical. The conditions noted are these: IC50 (M), Supplemental Figure 5, 3rd row pair; enzyme not given, inferred from match with Table 4a.
A further assay concerns the target E. coli iPGM (Escherichia coli, UniProt P37689). Put plainly: biochemical. The conditions noted are these: IC50 (M), Supplemental Figure 5, 5th row pair; enzyme not given, inferred from match with Table 4a.

Bridge positions count the residues as written; N and C are the ends. Square brackets hold non-standard residues; d marks the D form. Peptide text beside a SMILES is read from it. Nva = CCC[C@H](N)C(=O)O; Abu = CC[C@H](N)C(=O)O

Sequence of UniProt Q4VWF8 (Q4VWF8 whole entry): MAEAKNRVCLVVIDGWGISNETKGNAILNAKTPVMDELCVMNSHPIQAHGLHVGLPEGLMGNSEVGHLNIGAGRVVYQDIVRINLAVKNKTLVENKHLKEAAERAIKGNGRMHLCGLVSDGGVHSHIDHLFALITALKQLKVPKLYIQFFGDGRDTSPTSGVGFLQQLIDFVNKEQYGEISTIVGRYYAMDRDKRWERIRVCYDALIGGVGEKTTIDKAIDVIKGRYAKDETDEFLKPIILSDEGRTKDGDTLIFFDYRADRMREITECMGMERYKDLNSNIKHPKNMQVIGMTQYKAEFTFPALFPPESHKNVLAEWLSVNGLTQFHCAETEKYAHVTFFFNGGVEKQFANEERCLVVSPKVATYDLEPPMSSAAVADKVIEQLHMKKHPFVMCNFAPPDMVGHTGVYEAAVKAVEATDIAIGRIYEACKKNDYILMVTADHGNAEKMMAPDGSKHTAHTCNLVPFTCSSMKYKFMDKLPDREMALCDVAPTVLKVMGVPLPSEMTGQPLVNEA
Sequence of UniProt I6LDA6 (I6LDA6 whole entry): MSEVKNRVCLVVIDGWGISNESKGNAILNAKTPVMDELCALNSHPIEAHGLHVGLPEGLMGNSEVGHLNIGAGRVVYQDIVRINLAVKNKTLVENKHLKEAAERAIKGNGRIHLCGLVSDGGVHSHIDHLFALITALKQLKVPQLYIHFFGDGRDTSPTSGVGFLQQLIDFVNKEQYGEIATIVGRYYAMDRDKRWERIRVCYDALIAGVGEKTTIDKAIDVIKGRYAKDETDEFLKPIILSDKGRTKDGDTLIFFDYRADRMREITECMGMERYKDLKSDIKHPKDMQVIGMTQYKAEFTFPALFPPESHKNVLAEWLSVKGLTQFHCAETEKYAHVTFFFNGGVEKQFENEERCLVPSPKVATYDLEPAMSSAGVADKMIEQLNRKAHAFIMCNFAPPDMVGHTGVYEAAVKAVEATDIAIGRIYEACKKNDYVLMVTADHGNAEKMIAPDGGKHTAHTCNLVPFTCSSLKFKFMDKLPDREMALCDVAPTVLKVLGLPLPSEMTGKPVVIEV
Sequence of UniProt P37689 (P37689 whole entry): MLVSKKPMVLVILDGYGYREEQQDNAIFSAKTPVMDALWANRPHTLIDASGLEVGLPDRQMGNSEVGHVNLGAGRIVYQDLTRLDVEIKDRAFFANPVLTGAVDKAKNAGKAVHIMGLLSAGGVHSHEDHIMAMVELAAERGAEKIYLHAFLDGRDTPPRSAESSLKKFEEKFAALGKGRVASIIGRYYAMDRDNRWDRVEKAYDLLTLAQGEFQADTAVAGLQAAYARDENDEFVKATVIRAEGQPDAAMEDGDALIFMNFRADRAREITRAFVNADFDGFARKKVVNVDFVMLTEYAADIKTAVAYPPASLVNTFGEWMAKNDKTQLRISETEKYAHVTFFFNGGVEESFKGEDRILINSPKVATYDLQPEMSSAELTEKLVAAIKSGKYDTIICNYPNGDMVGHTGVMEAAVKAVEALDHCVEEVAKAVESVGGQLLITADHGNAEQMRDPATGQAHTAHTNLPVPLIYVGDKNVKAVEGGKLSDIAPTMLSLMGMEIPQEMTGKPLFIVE

As to `CC[C@@H]1NC(=O)[C@@H](Cc2ccc(O)cc2)NC(=O)CSC[C@@H](C(=O)N[C@@H](Cc2ccc(O)cc2)C(=O)N[C@@H](CC(C)C)C(=O)N[C@@H](Cc2ccc(O)cc2)C(=O)NCC(=O)N[C@H](C(=O)N[C@@H](CS)C(N)=O)[C@@H](C)O)NC(=O)[C@H](Cc2ccc(O)cc2)NC(=O)[C@H](CC(=O)O)NC(=O)CNC(=O)[C@@H]2CCCN2C(=O)[C@H](Cc2ccc(O)cc2)NC1=O` [Ce-2 D2Abu] ({CH2CO}-[dY][Abu]YPGDYCYLYGTC-NH2; thioether N-8), the IC50 was 1.15e-09 M on C. elegans iPGM, 2.2e-09 M at B. malayi iPGM, 2.38e-09 M on O. volvulus iPGM and 5.83e-08 M on E. coli iPGM.

For the compound `CC(C)C[C@H](NC(=O)[C@H](Cc1ccc(O)cc1)NC(=O)[C@@H]1CSCC(=O)N[C@H](Cc2ccc(O)cc2)C(=O)N[C@@H](CC(N)=O)C(=O)N[C@@H](Cc2ccc(O)cc2)C(=O)N2CCC[C@H]2C(=O)NCC(=O)N[C@@H](CC(=O)O)C(=O)N[C@@H](Cc2ccc(O)cc2)C(=O)N1)C(=O)N[C@@H](Cc1ccc(O)cc1)C(=O)NCC(=O)N[C@H](C(=O)N[C@@H](CS)C(N)=O)[C@@H](C)O` [Ce-2 D2N] ({CH2CO}-[dY]NYPGDYCYLYGTC-NH2; thioether N-8), the IC50 at C. elegans iPGM amounted to 1.86e-09 M; on B. malayi iPGM, 2.64e-09 M; against O. volvulus iPGM, 3.03e-09 M; against E. coli iPGM, 1.97e-07 M.

As for `CCC[C@@H]1NC(=O)[C@@H](Cc2ccc(O)cc2)NC(=O)CSC[C@@H](C(=O)N[C@@H](Cc2ccc(O)cc2)C(=O)N[C@@H](CC(C)C)C(=O)N[C@@H](Cc2ccc(O)cc2)C(=O)NCC(=O)N[C@H](C(=O)N[C@@H](CS)C(N)=O)[C@@H](C)O)NC(=O)[C@H](Cc2ccc(O)cc2)NC(=O)[C@H](CC(=O)O)NC(=O)CNC(=O)[C@@H]2CCCN2C(=O)[C@H](Cc2ccc(O)cc2)NC1=O` [Ce-2 D2Nva] ({CH2CO}-[dY][Nva]YPGDYCYLYGTC-NH2; thioether N-8), the IC50 on C. elegans iPGM amounted to 1.22e-09 M; at B. malayi iPGM, 1.96e-09 M; against O. volvulus iPGM it was 2.28e-09 M; against E. coli iPGM it was 3.69e-07 M.

`CC(C)C[C@H](NC(=O)[C@H](Cc1ccc(O)cc1)NC(=O)[C@@H]1CSCC(=O)N[C@H](Cc2ccc(O)cc2)C(=O)N[C@@H](CC(=O)O)C(=O)N[C@@H](Cc2ccc(O)cc2)C(=O)N2CCC[C@H]2C(=O)NCC(=O)N[C@@H](CC(=O)O)C(=O)N[C@@H](Cc2ccc(O)cc2)C(=O)N1)C(=O)N[C@@H](Cc1ccc(O)cc1)C(=O)NCC(=O)NCC(=O)N[C@@H](CS)C(N)=O` [Ce-2 T13G]: the IC50 on C. elegans iPGM came to 1.05e-09 M; against B. malayi iPGM, 5.13e-10 M; at O. volvulus iPGM, 1.2e-09 M; at E. coli iPGM it was 1.1e-07 M.

As for `CC(C)C[C@H](NC(=O)[C@H](Cc1ccc(O)cc1)NC(=O)[C@@H]1CSCC(=O)N[C@H](Cc2ccc(O)cc2)C(=O)N[C@@H](CC(=O)O)C(=O)N[C@@H](Cc2ccc(O)cc2)C(=O)N2CCC[C@H]2C(=O)NCC(=O)N[C@@H](CC(=O)O)C(=O)N[C@@H](Cc2ccc(O)cc2)C(=O)N1)C(=O)N[C@@H](Cc1ccc(O)cc1)C(=O)NCC(=O)N[C@@H](Cc1c[nH]cn1)C(=O)N[C@@H](CS)C(N)=O` [Ce-2 T13H], the IC50 was 2.07e-09 M on C. elegans iPGM, 8.63e-09 M against B. malayi iPGM, 3.61e-09 M against O. volvulus iPGM and 4.78e-06 M against E. coli iPGM.

`CC(C)C[C@H](NC(=O)[C@H](Cc1ccc(O)cc1)NC(=O)[C@@H]1CSCC(=O)N[C@H](Cc2ccc(O)cc2)C(=O)N[C@@H](CC(=O)O)C(=O)N[C@@H](Cc2ccc(O)cc2)C(=O)N2CCC[C@H]2C(=O)NCC(=O)N[C@@H](CC(=O)O)C(=O)N[C@@H](Cc2ccc(O)cc2)C(=O)N1)C(=O)N[C@@H](Cc1ccc(O)cc1)C(=O)NCC(=O)N[C@@H](CO)C(=O)N[C@@H](CS)C(N)=O` [Ce-2 Thr13Ser]: the IC50 on C. elegans iPGM was found to be 1.43e-09 M; at B. malayi iPGM, 5.43e-09 M; against O. volvulus iPGM it was 2.47e-09 M; against E. coli iPGM, 9.93e-09 M.

`CC(C)C[C@H](NC(=O)[C@H](Cc1ccccc1)NC(=O)[C@@H]1CSCC(=O)N[C@H](Cc2ccc(O)cc2)C(=O)N[C@@H](CC(=O)O)C(=O)N[C@@H](Cc2ccc(O)cc2)C(=O)N2CCC[C@H]2C(=O)NCC(=O)N[C@@H](CC(=O)O)C(=O)N[C@@H](Cc2ccccc2)C(=O)N1)C(=O)N[C@@H](Cc1ccc(O)cc1)C(=O)NCC(=O)N[C@H](C(=O)N[C@@H](CS)C(N)=O)[C@@H](C)O` [Ce-2 Y7F, Y9F] ({CH2CO}-[dY]DYPGDFCFLYGTC-NH2; thioether N-8): the concentration for half-maximal inhibition (IC50) at C. elegans iPGM was 2.37e-09 M; on B. malayi iPGM it was 2.41e-08 M; against O. volvulus iPGM, 2.35e-08 M; against E. coli iPGM it was 3.58e-06 M.

Turning to `CC(C)C[C@H](NC(=O)[C@H](Cc1ccc(O)cc1)NC(=O)[C@@H]1CSCC(=O)N[C@H](Cc2ccc(O)cc2)C(=O)N[C@@H](CC(=O)O)C(=O)N[C@@H](Cc2ccc(O)cc2)C(=O)N2CCC[C@H]2C(=O)NCC(=O)N[C@@H](CC(=O)O)C(=O)N[C@@H](Cc2ccccc2)C(=O)N1)C(=O)N[C@@H](Cc1ccc(O)cc1)C(=O)NCC(=O)N[C@H](C(=O)N[C@@H](CS)C(N)=O)[C@@H](C)O` [Ce-2 Y7F], the IC50 on C. elegans iPGM was 2.34e-09 M; against B. malayi iPGM it was 1.23e-09 M; at O. volvulus iPGM it was 2.71e-09 M; on E. coli iPGM, 6.38e-07 M.

For the compound `CC(C)C[C@H](NC(=O)[C@H](Cc1ccccc1)NC(=O)[C@@H]1CSCC(=O)N[C@H](Cc2ccc(O)cc2)C(=O)N[C@@H](CC(=O)O)C(=O)N[C@@H](Cc2ccc(O)cc2)C(=O)N2CCC[C@H]2C(=O)NCC(=O)N[C@@H](CC(=O)O)C(=O)N[C@@H](Cc2ccc(O)cc2)C(=O)N1)C(=O)N[C@@H](Cc1ccc(O)cc1)C(=O)NCC(=O)N[C@H](C(=O)N[C@@H](CS)C(N)=O)[C@@H](C)O` [Ce-2 Y9F] ({CH2CO}-[dY]DYPGDYCFLYGTC-NH2; thioether N-8), the IC50 on C. elegans iPGM is 1.31e-09 M; against B. malayi iPGM it was 3.53e-09 M; against O. volvulus iPGM, 3.57e-09 M; against E. coli iPGM, 5.14e-07 M.

(Values after article PMC8113725, “Structure–activity relationship of ipglycermide binding to phosphoglycerate mutases” (The Journal of Biological Chemistry, 2021).)
